Results taken from PubChem BioAssay AID485313 (National Center for Advancing Translational Sciences (NCATS), 2010).
Among all 320,000 compounds or so, about 7,600 (2.4%) were called active. Inconclusive means that the source gave no clear call. Such entries were picked first, then a sample of the others. Calls come from the whole dose curve; as a rule, active = well fitted activation curve with a large enough effect; inconclusive = small, poorly fitted or top-dose-only effect; inactive = no such curve, though single readings can be large or run the other way. Potencies beside an inconclusive call are fits to weak or partial responses and may not hold up.

Assay: qHTS Assay for NPC1 Promoter Activators; note: nearly all actives have a fitted effect of over 60% in size;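 for activation: reporter is driven by a mutant NPC1 promoter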
Conditions: Huh7 NPC1 promoter luciferase reporter, 24 h; series mostly up to 9.22 µM
Outline: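 Huh7 reporter cells (NPC1 promoter driving luciferase) are dosed with compound for 24 h at 37 °C, 5% CO2; luciferase detection reagent is then added and luminescence measured after 10 min at ambient temperature.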
Potency is the fitted concentration of half-maximal effect; tags give direction and shape of the fitted curve.

Potency, inactive:
CCCCN(C(=O)CNC(=O)c1cccs1)C(C(=O)NC1CCCC1)c1ccncc1 (configuration not stated)
CCCn1nc(NC(=O)c2cccs2)c2cc3cc(C)ccc3nc21
O=C1C(=O)c2ccc(-c3ccccc3)cc2-c2ccccc21
CC(C)(C)OC(=O)CNC(=O)c1nc[nH]c1C(=O)N1CCc2ccccc2C1
CCN(CC)S(=O)(=O)c1cc(NC(=O)c2ccc3c(c2)NC(=O)C(C)S3)ccc1C (configuration not stated)
COCCN(C(=O)CCC(=O)Nc1cc(C)on1)C(C(=O)NC(C)(C)C)c1cccc(OC)c1OC (configuration not stated)
O=C(CSc1ccc2c(c1)OCCO2)Nc1ccc2c(c1)OCO2
O=S(=O)(N/N=C/c1c(F)cccc1Cl)c1ccccc1
COc1ccc(NC(=O)CSc2nccn2Cc2ccco2)c(OC)c1
Cc1cc(=O)oc2cc(OCC(=O)OCC(=O)Nc3ccc(C(N)=O)cc3)ccc12
Cc1ccc(N=C2NC(=O)/C(=C/c3cccn3C)S2)cc1C
Cc1ccc(S(=O)(=O)N(C)C)cc1NC(=O)c1cncc(Br)c1
COc1cc(O)c(CCC(=O)c2ccc(OC)c(OC)c2)c(OC)c1
Cc1nc(-c2cccc(NC(=O)c3cccc(S(=O)(=O)N4CCCC4)c3)c2)cs1
CC1CN(C(=O)/C=C/c2ccc3c(c2)OCO3)CC(C)O1 (configuration not stated)
COc1ccccc1C(=O)ON=C1c2ccccc2-c2ccccc21
Cc1cc(C)cc(N(CC(=O)NC(C)(C)C)C(=O)CCC(=O)Nc2nccs2)c1
O=C(CSc1ncnc2ccccc12)Nc1cc(S(=O)(=O)N2CCCCC2)ccc1Cl
CSc1ccccc1OCc1cc(C(=O)N2CCC(c3ccncc3)CC2)no1
O=C(c1ccccc1F)N1CCCc2ccccc21
O=C(CCN1C(=O)[C@@H]2Cc3ccccc3CN2C1=O)NCc1ccccc1Cl
CCOC(=O)CC1C(=O)NCCN1Cc1cccs1 (configuration not stated)
CC(=O)Nc1ccc(C(=O)Nc2nc(-c3cccnc3)cs2)cc1
O=C(/C=C/c1ccc(Cl)cc1)N1CCN(Cc2ccccc2)CC1
CCOC(=O)c1[nH]c2ccc(OC)cc2c1NC(=O)c1cccc(OC)c1

Potency, inconclusive:
O=C(/C=C/c1cccc(F)c1)c1ccc(N2CCOCC2)cc1 2 µM [activator, partial curve]
O=C(NCc1csc(-c2ccccc2)n1)c1cc(F)cc2c1OCOC2 3.55 µM [activator, partial curve]
Cc1cc(C(=O)NCc2csc(-c3ccccc3)n2)no1 3.16 µM [activator, partial curve]
O=C1/C(=C\Nc2ccc(OC(F)(F)F)cc2)CCN1c1ncccn1 3.16 µM [activator, partial curve]
Cc1ccccc1-c1cc2nc(C)c(C)c(=O)n2[nH]1 3.16 µM [activator, single point]
O=C(CC(=O)c1ccccc1O)c1ccc(F)cc1 6.31 µM [activator, single point]
S=C(Nc1ccc(Cl)cc1)Nc1ccc2c(c1)OCCO2 2 µM [activator, partial curve]
O=S(=O)(c1ccccc1)n1ccc(-c2cnc(-c3ccccc3)s2)n1 2.24 µM [activator, partial curve]
N/C(=N\OC(=O)c1ccc(F)cc1)c1ccccc1 3.98 µM [activator, single point]
CC(=O)c1ccc(NC(=O)c2cccc(S(=O)(=O)N3CCN(C)CC3)c2)cc1 3.55 µM [activator, partial curve]
COc1ccc2c(c1)CCc1c(C(=O)N3CCCC3)noc1-2 3.55 µM [activator, single point]
CC(C)CC(=O)Nc1ccc(-c2nnn(CC(=O)NCc3ccco3)n2)cc1 3.98 µM [activator, single point]
Cc1ccc(C2CCN(C(=O)Nc3ccc(F)cc3)C2)cc1 (configuration not stated) 2.82 µM [activator, single point]
CSc1ccc(/C=N/n2c(C)cc(C)cc2=O)cc1 2.51 µM [activator, partial curve]
Cc1c(C(=O)N(C)c2ccc(Cl)cc2)cnn1-c1ccccc1 3.55 µM [activator, partial curve]
CN(c1nc(-c2ccc(Br)cc2)cs1)C1CCS(=O)(=O)C1 (configuration not stated) 4.47 µM [activator, single point]
CN1CCN(c2ccc(-c3ccnn3C(=O)Nc3ccccc3)cc2)CC1 3.16 µM [activator, single point]
CN(CCCC1CCCC1)C(=O)CCc1nnc(-c2ccccc2)o1 5.62 µM [activator, single point]
S=C(NCCc1ccccc1)N1CCCCC1 3.55 µM [activator, partial curve]
Cc1nonc1NC(=O)c1oc2ccccc2c1C 3.55 µM [activator, single point]
Cc1cccc(NC(=O)c2ccc3ccccc3n2)c1C 0.1 µM [activator, full curve]
c1ccc(-n2cnc3cc(NCc4cccs4)ccc32)cc1 0.447 µM [activator, partial curve]
O=C(Nc1nc2c(s1)CCc1ccccc1-2)c1ccco1 3.16 µM [activator, partial curve]
CSc1nnc(-c2ccc(Cl)cc2Cl)o1 3.55 µM [activator, partial curve]
O=C(NC(=S)Nc1ccccc1O)c1ccc(Cl)cc1Cl 3.55 µM [activator, partial curve]
CNC(=O)c1[nH]nc2c1CCc1cc(OC)ccc1-2 3.55 µM [activator, single point]
Cc1ccc(C(=O)NCCc2ccccn2)cc1S(=O)(=O)N1CCOCC1 0.708 µM [activator, single point]
CC(=O)Nc1ccc(S(=O)(=O)Nc2nc3ccccc3nc2-n2ccc(=NC(=O)c3ccccc3)cc2)cc1 1.26 µM [activator, single point]
Cc1nc2cc(-c3ccc(Cl)cc3)nn2c(NCCN(C)C)c1C 3.16 µM [activator, single point]
CC(/C=N/Nc1nnc2c(n1)[nH]c1ccccc12)=C\c1ccco1 4.47 µM [activator, partial curve]
Cc1cc2n(n1)SC(Nc1cccc3ccccc13)N2 (configuration not stated) 3.16 µM [activator, partial curve]
CCOC(=O)c1cnn2c(C)cc(-c3ccccc3)nc12 3.16 µM [activator, single point]
CC(=O)Oc1ccc2c(=O)c(-c3ccccc3)coc2c1 5.62 µM [activator, single point]
O=C(c1cc(COc2ccc(F)c(F)c2)on1)N1CCOCC1 3.98 µM [activator, partial curve, poor fit]
Cc1nc(N)sc1C(=O)N/N=C/c1ccc([N+](=O)[O-])cc1 1.26 µM [activator, single point]
Cc1scc(C(=O)N/N=C/c2ccco2)c1C 4.47 µM [activator, single point]
CC(C)Cc1ccc(/C=C/C(=O)NC2CC2)cc1 3.55 µM [activator, partial curve]

Potency, active:
CCc1nnc(NC(=O)c2cc(Cl)ccn2)s1 2.24 µM
COc1cccc(CN2CCN(Cc3cccc4c3OCO4)CC2CCO)c1 (configuration not stated) 0.398 µM
c1ccc(-c2cnc(-c3ccccc3)nc2)cc1 0.562 µM
c1ccc(-c2nnc(-c3ccccc3)o2)cc1 1.58 µM
CCOC(=O)c1cnc2c(-c3cccc(Br)c3)cnn2c1C 3.16 µM
Cc1ccc(Nc2nc(N)nc(CSC(=S)N3CCOCC3)n2)cc1 2.82 µM
O=C(Nc1ccc2c(c1)OCCO2)C1CCCN(c2ncccn2)C1 (configuration not stated) 0.398 µM
COc1ncccc1-c1nnn(-c2ccccc2)n1 1.78 µM
CCOn1c(=O)c(-c2cc3ccccc3o2)[n+]([O-])c2ccccc21 3.55 µM
Cc1cccc(NC(=O)/C(C#N)=C/c2ccccc2O)n1 3.55 µM
c1ccc(-c2noc(CC3CCCCC3)n2)nc1 3.55 µM
O=C(NCCOc1ccccc1)c1ccccc1NC(=O)C1CCCO1 (configuration not stated) 3.98 µM
Cc1ccc(-n2nc3cc(C)c(N)cc3n2)cc1 3.98 µM
c1csc(-c2nc(-c3ccc(-c4ccon4)s3)no2)c1 0.562 µM
CC(=O)Nc1cccc(C(=O)N/N=C/c2ccc(F)cc2)c1 2.82 µM
O=Nc1c2cc(-c3ccccc3)[nH]nc-2c2ccccc12 3.16 µM
O=C(Nc1ccc2c(c1)OCO2)c1ccc(CO)cc1 3.16 µM
Cc1ccc2nc(NC(=O)c3ccc4ncsc4c3)sc2c1 1.58 µM
COc1ccc2cc(-c3ccccc3F)ncc2c1 1.41 µM
O=C(CSc1nnc(-c2cccnc2)o1)Nc1ccccn1 3.16 µM
